Experimental data taken from the supplement of paper PMC4967469.

Assays:
Assay in all cases: Viability of human cancer cell lines after 72 h of drug (GDSC screen)
Methotrexate = compound: CN(Cc1cnc2nc(N)nc(N)c2n1)c1ccc(C(=O)N[C@@H](CCC(=O)O)C(=O)O)cc1 [Methotrexate]; conditions: top dose 0.2 µM
Experimental: (§1)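 Human cancer cell lines in 384-well plates, medium with 10% serum, drug for 72 h over a 256-fold dose range (nine 2-fold or five 4-fold steps up to the top dose). Adherent lines were fixed and stained with the nucleic acid dye Syto60, suspension lines read with resazurin; signal relative to control wells, capped at 0 and 100%. One two-parameter sigmoid per drug and line, fitted in a mixed model over all curves with the slope shared within a line.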

Dabrafenib = compound: CC(C)(C)c1nc(-c2cccc(NS(=O)(=O)c3c(F)cccc3F)c2F)c(-c2ccnc(N)n2)s1 [Dabrafenib]; conditions: top dose 10 µM
Experimental: as §1

Axitinib = compound: CNC(=O)c1ccccc1Sc1ccc2c(/C=C/c3ccccn3)n[nH]c2c1 [Axitinib]; conditions: top dose 2 µM
Experimental: as §1

Vorinostat = compound: O=C(CCCCCCC(=O)Nc1ccccc1)NO [Vorinostat]; conditions: top dose 10 µM
Experimental: as §1

SN-38 = compound: CCc1c2c(nc3ccc(O)cc13)-c1cc3c(c(=O)n1C2)COC(=O)[C@]3(O)CC [SN-38]; conditions: top dose 0.05 µM; top dose inferred
Experimental: as §1

Cell Line	AUC (Methotrexate)	IC50 (Methotrexate)	AUC (Dabrafenib)	IC50 (Dabrafenib)	AUC (Axitinib)	IC50 (Axitinib)	AUC (Vorinostat)	IC50 (Vorinostat)	AUC (SN-38)	IC50 (SN-38)
42-MG-BA (glioma, adherent)	0.932	> 200 nM	0.973	> 10000 nM	0.927	> 2000 nM	0.826	6600 nM	0.529	3.76 nM
451Lu (melanoma, adherent)	0.986	> 200 nM	0.089	< 39.1 nM	0.973	> 2000 nM	0.505	643 nM	0.897	> 50 nM
639-V (bladder, adherent)	0.991	> 200 nM	0.987	> 10000 nM	0.867	1370 nM	0.698	2040 nM	0.349	1.28 nM
647-V (bladder, adherent)	0.977	> 200 nM	0.982	> 10000 nM	0.985	> 2000 nM	0.812	5410 nM	0.31	0.917 nM
697 (lymphoblastic leukaemia, suspension)	0.433	8.55 nM	0.439	441 nM	0.856	1130 nM	0.427	412 nM	0.487	2.9 nM
5637 (bladder, adherent)	0.891	194 nM	0.981	> 10000 nM	0.904	> 2000 nM	0.74	2800 nM	0.49	2.94 nM
8305C (thyroid, adherent)	0.833	190 nM	0.434	389 nM	0.96	> 2000 nM	0.731	3550 nM	0.79	30.3 nM
A3-KAW (B-cell lymphoma, suspension)	0.709	41.9 nM	0.511	664 nM	0.988	> 2000 nM	0.477	548 nM	0.338	1.23 nM
A388 (skin, adherent)	0.98	> 200 nM	0.98	> 10000 nM	0.878	> 2000 nM	0.735	3290 nM	0.654	8.95 nM
A704 (kidney, adherent)	0.988	> 200 nM	0.94	> 10000 nM	0.939	> 2000 nM	0.827	5870 nM	0.861	40.4 nM
ABC-1 (lung adenocarcinoma, adherent)	0.983	> 200 nM	0.921	> 10000 nM	0.847	1960 nM	0.72	3040 nM	0.582	5.49 nM
ALL-PO (lymphoblastic leukaemia, suspension)	0.807	110 nM	0.981	> 10000 nM	0.822	1260 nM	0.318	188 nM	0.908	> 50 nM
ALL-SIL (T-cell leukaemia, suspension)	0.837	109 nM	0.763	3130 nM	0.685	377 nM	0.494	604 nM	0.301	0.943 nM
AM-38 (glioma, semi-adherent)	0.918	> 200 nM	0.987	> 10000 nM	0.983	> 2000 nM	0.755	3450 nM	0.76	17.9 nM
AMO-1 (haematopoietic neoplasm, suspension)	0.629	26.8 nM	0.872	7310 nM	0.984	> 2000 nM	0.508	654 nM	0.779	17.5 nM
ASH-3 (thyroid, adherent)	0.986	> 200 nM	0.896	> 10000 nM	0.916	> 2000 nM	0.815	5490 nM	0.755	16.9 nM
ATN-1 (T-cell lymphoblastic leukaemia, suspension)	0.473	10.6 nM	0.951	> 10000 nM	0.746	598 nM	0.396	331 nM	0.451	2.33 nM
BALL-1 (B-cell leukaemia, suspension)	0.639	27.1 nM	0.994	> 10000 nM	0.997	> 2000 nM	0.602	1110 nM	0.43	2.11 nM
BB49-HNC (head and neck, adherent)	0.972	> 200 nM	0.552	916 nM	0.966	> 2000 nM	0.882	> 10000 nM	0.565	5.04 nM

Cell Line	AUC (Methotrexate)	IC50 (Methotrexate)	AUC (Dabrafenib)	IC50 (Dabrafenib)	AUC (Axitinib)	IC50 (Axitinib)	AUC (Vorinostat)	IC50 (Vorinostat)	AUC (SN-38)	IC50 (SN-38)
BE2-M17 (neuroblastoma, adherent)	0.987	> 200 nM	0.983	> 10000 nM	0.918	> 2000 nM	0.697	2270 nM	0.726	14 nM
BE-13 (lymphoblastic leukaemia, suspension)	0.631	28 nM	0.683	1960 nM	0.748	607 nM	0.484	567 nM	0.65	7.89 nM
BFTC-905 (bladder, adherent)	0.985	> 200 nM	0.81	4400 nM	0.941	> 2000 nM	0.765	3190 nM	–	–
CAL-78 (chondrosarcoma, adherent)	0.986	> 200 nM	0.966	> 10000 nM	0.897	> 2000 nM	0.825	7190 nM	–	–
CHP-212 (neuroblastoma, adherent)	0.987	> 200 nM	0.967	> 10000 nM	0.768	693 nM	0.289	168 nM	–	–
HSC-4 (head and neck, adherent)	0.962	> 200 nM	0.781	5680 nM	0.829	1850 nM	0.558	945 nM	–	–
Hs746T (stomach, adherent)	0.957	> 200 nM	0.959	> 10000 nM	0.946	> 2000 nM	0.758	4610 nM	–	–
IPC-298 (melanoma, adherent)	0.976	> 200 nM	–	–	0.986	> 2000 nM	0.802	4820 nM	0.72	13 nM
JHU-011 (head and neck, adherent)	0.511	13.4 nM	–	–	0.879	2000 nM	0.501	631 nM	0.527	3.7 nM
KGN (ovary, adherent)	0.852	> 200 nM	–	–	0.96	> 2000 nM	0.842	9370 nM	0.457	2.33 nM
KMRC-1 (kidney, adherent)	0.985	> 200 nM	–	–	0.959	> 2000 nM	0.898	> 10000 nM	0.691	11.1 nM
KYSE-220 (oesophagus, adherent)	0.932	> 200 nM	–	–	0.944	> 2000 nM	0.818	6020 nM	0.479	2.73 nM
KYSE-410 (oesophagus, adherent)	0.608	25.3 nM	–	–	0.889	> 2000 nM	0.613	1310 nM	0.789	23.8 nM
KYSE-450 (oesophagus, adherent)	0.717	49.4 nM	0.983	> 10000 nM	0.974	> 2000 nM	0.753	3170 nM	–	–
MOG-G-UVW (glioma, adherent)	0.973	> 200 nM	–	–	0.896	> 2000 nM	0.577	1010 nM	0.404	1.72 nM
MZ2-MEL (melanoma, adherent)	0.981	> 200 nM	–	–	0.855	> 2000 nM	0.678	2150 nM	0.841	43.7 nM
NB6 (neuroblastoma, adherent)	0.984	> 200 nM	–	–	0.96	> 2000 nM	0.69	2430 nM	0.982	> 50 nM
NB14 (neuroblastoma, adherent)	0.738	57 nM	–	–	0.736	561 nM	0.407	354 nM	0.461	2.47 nM
NCI-H209 (small cell lung carcinoma, suspension)	0.764	77.4 nM	–	–	0.844	1580 nM	0.448	446 nM	0.26	0.608 nM

Cell Line	AUC (Methotrexate)	IC50 (Methotrexate)	AUC (Dabrafenib)	IC50 (Dabrafenib)	AUC (Axitinib)	IC50 (Axitinib)	AUC (Vorinostat)	IC50 (Vorinostat)	AUC (SN-38)	IC50 (SN-38)
NCI-H1792 (lung adenocarcinoma, adherent)	0.814	95.9 nM	–	–	0.956	> 2000 nM	0.774	3540 nM	0.86	35.3 nM
NEC8 (testis, adherent)	0.888	166 nM	–	–	0.788	734 nM	0.404	355 nM	0.706	10.7 nM
NH-12 (neuroblastoma, adherent)	0.95	> 200 nM	–	–	0.869	> 2000 nM	0.657	1810 nM	0.409	1.71 nM
NOS-1 (osteosarcoma, adherent)	0.931	> 200 nM	–	–	0.905	> 2000 nM	0.652	1820 nM	0.882	> 50 nM
OCI-LY7 (B-cell lymphoma, suspension)	0.993	> 200 nM	–	–	0.904	1310 nM	0.441	451 nM	0.932	40.9 nM
P30-OHK (lymphoblastic leukaemia, suspension)	0.554	17.1 nM	–	–	0.912	> 2000 nM	0.525	721 nM	0.429	2.07 nM
PANC-04-03 (pancreas, adherent)	0.94	> 200 nM	–	–	0.977	> 2000 nM	0.845	> 10000 nM	0.871	> 50 nM
PCI-4B (head and neck, adherent)	0.789	83.7 nM	–	–	0.937	> 2000 nM	0.536	779 nM	0.479	2.75 nM
PFSK-1 (medulloblastoma, adherent)	0.893	> 200 nM	–	–	0.874	> 2000 nM	0.58	1050 nM	0.739	15.8 nM
RPMI-8866 (chronic myeloid leukaemia, suspension)	0.429	8.11 nM	0.935	> 10000 nM	0.847	1310 nM	0.374	289 nM	–	–
SCH (stomach, adherent)	0.938	> 200 nM	–	–	0.988	> 2000 nM	0.746	3380 nM	0.935	> 50 nM
SK-LMS-1 (soft tissue, adherent)	0.975	> 200 nM	–	–	0.895	> 2000 nM	0.665	1760 nM	0.345	1.19 nM
SK-MEL-24 (melanoma, adherent)	0.968	> 200 nM	–	–	0.977	> 2000 nM	0.939	> 10000 nM	0.51	3.35 nM
SK-MES-1 (lung squamous cell carcinoma, adherent)	0.969	> 200 nM	–	–	0.984	> 2000 nM	0.84	7810 nM	0.694	11.6 nM
SK-N-DZ (neuroblastoma, adherent)	0.923	> 200 nM	–	–	0.914	> 2000 nM	0.574	994 nM	0.541	4.03 nM
TMK-1 (stomach, adherent)	0.756	72.2 nM	0.984	> 10000 nM	0.97	> 2000 nM	0.572	994 nM	–	–
TOV-21G (ovary, adherent)	0.982	> 200 nM	–	–	0.861	1950 nM	0.593	1150 nM	0.574	5.08 nM
WM793B (melanoma, adherent)	0.98	> 200 nM	–	–	0.978	> 2000 nM	0.877	> 10000 nM	0.563	4.75 nM
WM-115 (melanoma, adherent)	0.923	> 200 nM	–	–	0.961	> 2000 nM	0.725	3200 nM	0.817	36.4 nM

IC50 is the fitted dose that halves viability relative to control wells, and lower means more sensitive; fits outside the tested doses are given as limits. The AUC spans the tested range (256-fold, ending at the top dose) of the same fit; it is 1 without any effect and falls as sensitivity rises. For part of these data: The top dose, if marked as inferred, was derived from the fitted curves, not read from the paper.
